# Data published in PubChem BioAssay AID2675 (National Center for Advancing Translational Sciences (NCATS), 2010).
# Among all 280,000 compounds or so, about 100 (0.036%) were called active. This list was built around the results that the source calls inconclusive (neither active nor inactive); the mix of calls is not that of the screen. Calls follow the shape of the dose curve; as a rule, active = well fitted inhibition curve with a large enough effect in the signal ratio, with a control signal flat (not every such curve was filed as active); inconclusive = small, poorly fitted or top-dose-only effect, or effect the other way, or a change in a side signal; inactive = no such curve, though single readings can be large or run the other way; the % refers to the signal ratio. Potencies beside an inconclusive call are fits to weak or partial responses and may not hold up. A note “side channel” means that the fit belongs to a control or component signal, not to the main read-out.
# Molecular target: Muscleblind-like protein 1 (Homo sapiens) (UniProt Q9NR56)
# Assay: qHTS Assay for Inhibitors of MBNL1-poly(CUG) RNA binding
# Settings: TR-FRET MBNL1-His/biotin-(CUG)12 binding, 665/545 ratio; activity change, negative = inhibition: at 57.5 µM (top of the series)
# Summary of the method: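 TR-FRET readout: Ex 340 nm, 665/545 nm emission ratio, normalized to buffer-only (basal) and MBNL1-(CUG)12 controls. Complex of MBNL1-His with Biotin-(CUG)12, compounds 92 nM–58 uM, incubated 60 min at room temperature.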
# % is scaled to controls: 0 for no effect and ±100 for the full control effect; potency is read from the fitted curve at half-maximal effect; tags tell the direction and shape of the fitted curve or compound fluorescence and quenching.
# Sequence of UniProt Q9NR56 (Q9NR56 whole entry, looked up): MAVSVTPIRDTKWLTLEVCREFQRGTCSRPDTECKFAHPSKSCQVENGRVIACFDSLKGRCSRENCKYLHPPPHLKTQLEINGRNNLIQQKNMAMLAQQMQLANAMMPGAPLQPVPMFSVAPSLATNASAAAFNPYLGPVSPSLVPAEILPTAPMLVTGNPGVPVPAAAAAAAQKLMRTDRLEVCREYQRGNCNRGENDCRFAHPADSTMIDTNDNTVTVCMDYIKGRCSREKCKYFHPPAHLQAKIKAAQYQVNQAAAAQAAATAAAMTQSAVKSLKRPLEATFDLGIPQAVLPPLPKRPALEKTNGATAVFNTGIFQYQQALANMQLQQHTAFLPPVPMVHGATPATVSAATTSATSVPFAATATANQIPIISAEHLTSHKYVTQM
SMILES,Potency,"activity change, negative = inhibition"
COc1cccc(C(=O)Nc2ccc3c(c2)C(=O)N(CCC(=O)O)C3=O)c1,"inconclusive: 17.8 µM [quencher, single point]",
CCc1ccc2nc(N3C(=O)c4oc5ccccc5c(=O)c4C3c3ccc(OC)c(OC)c3)sc2c1 (configuration not stated),"inconclusive: 3.55 µM [fluorescent, side channel, full curve]",
c1ccc(-c2nc3nc4ccccc4nc3n2Cc2ccco2)cc1,"inconclusive: 12.6 µM [quencher, side channel, partial curve]",
COc1ccccc1NC(=O)CN(c1ccccc1C)S(C)(=O)=O,,inactive: -3.04%
C/C(N)=C(/C#N)C(=O)CSc1nc2ccccc2c(=O)n1-c1ccccc1C,"inconclusive: 100 µM [inhibitor, single point]",
CN(C)c1ccc(/C=C(/C(=O)c2ccc(Cl)cc2Cl)n2cncn2)cc1,"inconclusive: 11.2 µM [quencher, side channel, partial curve]",
Cc1nc(SCC2(C)CC2(Cl)Cl)n[nH]1 (configuration not stated),,inactive: -1.61%
COc1cc2c(cc1OC)C(c1ccc(-c3ccc(Cl)cc3Cl)o1)=NCC2,"inconclusive: 15.8 µM [quencher, side channel, partial curve]",
C/C=C/C(=O)Nc1cccc(C2=NOC3(C2)C[C@@H](C(N)=O)N(C(=O)c2cc([N+](=O)[O-])cc([N+](=O)[O-])c2C)C3)c1 (some centres not stated),"inconclusive: 12.6 µM [quencher, side channel, partial curve]",
COc1ccc2oc(=O)c(C(=O)Oc3ccc(NC(C)=O)cc3)cc2c1,"inconclusive: 4.47 µM [quencher, side channel, full curve]",
O=C(N/N=C/c1cccc(OCC(=O)N2CCCC2)c1)C(=O)Nc1ccccc1F,"inconclusive: 25.1 µM [quencher, side channel, partial curve, poor fit]",
CC(=O)N(c1ccccc1C)C1CCCC1,,inactive: 3.6%
Cc1cc(C)n(-c2cc(N3CCN(S(=O)(=O)c4ccc(Br)cc4)CC3)ccc2[N+](=O)[O-])n1,,inactive: 6.08%
C=CCNC(=O)C1CCN(S(=O)(=O)c2ccccc2)CC1,,inactive: -5.32%
CCCCCc1nc2sc3c(c2c(=O)n1NC(=O)c1ccc([N+](=O)[O-])cc1)CC(C)(C)OC3,,inactive: 24.1%
Cn1c(/C(C#N)=C/c2ccc(-c3ccc(S(N)(=O)=O)cc3)o2)nc2ccccc21,"inconclusive: 7.08 µM [quencher, side channel, single point]",
CCc1ccc(N=C2NC(=O)/C(=C/c3ccc(OCC(=O)O)cc3)S2)cc1,"inconclusive: 25.1 µM [quencher, side channel, partial curve]",
COc1ccc2c(c1)C=C(CN1CCC(CO)(CCc3ccccc3)CC1)CO2,,inactive: -6.85%
CCN(C(=O)COC(=O)/C=C/c1cnc2ccccc2n1)C1CCS(=O)(=O)C1 (configuration not stated),"inconclusive: 25.1 µM [quencher, side channel, partial curve]",
Cc1ccc(N/C=C/C(=O)C(C)(C)C)c(O)c1,"inconclusive: 22.4 µM [quencher, side channel, single point]",
CCCn1nc(NS(=O)(=O)c2ccccc2)c2cc3ccccc3nc21,"inconclusive: 35.5 µM [quencher, side channel, single point]",

SMILES,Potency,"activity change, negative = inhibition"
CCOC(=O)N1CCC(NC(=O)c2cc3cc4cc(OC)ccc4nc3o2)CC1,"inconclusive: 11.2 µM [quencher, side channel, partial curve]",
Cc1ccc(S(=O)(=O)NCC(=O)Nc2cccc([N+](=O)[O-])c2)cc1,"inconclusive: 20 µM [quencher, side channel, single point]",
Cc1cccc2c(C(=O)N3CCN(C(=O)c4ccco4)CC3)cc(-c3cccc(Br)c3)nc12,,inactive: 7.89%
CC1CCCC(C)N1C(=O)COc1ccc([N+](=O)[O-])cc1Cl (configuration not stated),"inconclusive: 22.4 µM [quencher, side channel, partial curve]",
COc1cc([N+](=O)[O-])ccc1NC(=O)CN(C)C,,inactive: 32.9%
COc1ccc(OCC(=O)NNc2c3ccccc3nc3ccccc23)cc1,"inconclusive: 3.98 µM [quencher, side channel, partial curve, poor fit]",
CCN(CC)S(=O)(=O)c1ccc(C)c(NC(=O)Cn2cnc3cc([N+](=O)[O-])ccc3c2=O)c1,"inconclusive: 39.8 µM [quencher, single point]",
COc1cccc(-c2ncc3ccccn23)c1,"inconclusive: 39.8 µM [quencher, side channel, partial curve]",
CC(C)c1ccc(C(=O)Nc2ccc(CN3CCOCC3)cc2)cc1,,inactive: -7.83%
O=C(c1ccc2nccnc2c1)N1CCN(Cc2ccc3c(c2)OCO3)CC1,,inactive: 16%
CN(c1cccc(NS(=O)(=O)c2cccc([N+](=O)[O-])c2)c1)S(C)(=O)=O,"inconclusive: 28.2 µM [quencher, single point]",
O=C(O/N=C/c1cccc([N+](=O)[O-])c1)C1CC1,"inconclusive: 15.8 µM [quencher, side channel, partial curve, poor fit]",
Cc1c(=O)n(OCc2cccc(F)c2)c2ccccc2[n+]1[O-],"inconclusive: 14.1 µM [quencher, side channel, partial curve]",
COc1ccc(-n2nc(C(=O)NCC(=O)N3CCC(C(N)=O)CC3)c3ccccc3c2=O)cc1OC,"inconclusive: 28.2 µM [quencher, side channel, single point]",
NC(N)=Nc1nc(-c2ccccc2)c2ccccc2n1,"inconclusive: 15.8 µM [quencher, side channel, partial curve]",
CCn1c(SCC(=O)Nc2cc(NC(C)=O)ccc2OC)nnc1-c1ccccn1,"inconclusive: 0.126 µM [quencher, side channel, full curve, poor fit]",
Cc1cc(C)nc(SCc2ccc3nonc3c2)n1,"inconclusive: 7.08 µM [quencher, side channel, partial curve]",
COc1cc(-c2cc(C(=O)N(C)Cc3ccccc3)c3ccccc3n2)cc(OC)c1OC,,inactive: 8.27%
c1ccc(-c2csc(NNC3=NCCCCC3)n2)cc1,,inactive: 0.582%
CC1(C)CC(=O)C(N=Nc2c(F)cccc2F)=C(O)C1,"inconclusive: 14.1 µM [quencher, partial curve]",
Cc1cccc(/C=N/n2c(-c3ccccn3)n[nH]c2=S)c1,,inactive: 0.521%

SMILES,Potency,"activity change, negative = inhibition"
CNC(=O)C(=O)N/N=C/c1cccnc1,"inconclusive: 25.1 µM [quencher, side channel, partial curve]",
Cc1cccc(C2c3[nH]c4ccccc4c3CCN2C(=O)c2cc(C(C)C)nc(N)n2)n1 (configuration not stated),"inconclusive: 17.8 µM [quencher, side channel, single point]",
O=C(Nc1cnn(Cc2ccc(Cl)cc2)c1)c1ccc([N+](=O)[O-])cc1,"inconclusive: 20 µM [quencher, side channel, partial curve]",
COc1ccc(NC(=S)NCCCCCC(=O)C[N+](=O)[O-])cc1,"inconclusive: 0.631 µM [fluorescent, side channel, single point]",
O=C(CN1CCc2ccccc21)Nc1ccc2c(c1)OCO2,"inconclusive: 35.5 µM [quencher, side channel, single point]",
Cc1cccn2c(=O)c3cc(C(=O)NCc4cccnc4)c(=N)n(C)c3nc12,"inconclusive: 28.2 µM [quencher, single point]",
CCOC(=O)c1sc(C)c2c1NC(C)(c1ccccc1)NC2=O (configuration not stated),,inactive: 30.5%
CC1CC(=O)N(CC(=O)NCc2ccc3c(c2)OCO3)c2ccccc2S1 (configuration not stated),"inconclusive: 39.8 µM [quencher, side channel, single point]",
CCCCN(C)CCNC(=O)c1cc2cc3ccc(OC)cc3nc2o1,"inconclusive: 12.6 µM [quencher, side channel, partial curve]",
COc1ccc(CCNC(=O)c2c(C)noc2C)cc1,,inactive: 2.54%
COC(=O)c1cccc(NC(=O)COc2cccc([N+](=O)[O-])c2)c1,"inconclusive: 14.1 µM [quencher, partial curve]",
O=S(=O)(Cc1ccccc1)N1CCN(Cc2ccc(Br)cc2)CC1,"inconclusive: 17.8 µM [quencher, side channel, partial curve]",
COc1ccc(-c2nn(CCC(=O)O)cc2/C=C/C(=O)O)cc1[N+](=O)[O-],"inconclusive: 12.6 µM [quencher, side channel, partial curve, poor fit]",
Cc1ccccc1C(=O)N1CCN(c2ccccn2)CC1,"inconclusive: 50.1 µM [inhibitor, single point]",
CC12CC3CC(C)(C1)CC(C(=O)NC(=S)N1CCOCC1)(C3)C2,,inactive: -6.66%
O=C(Nc1ncc([N+](=O)[O-])s1)c1ccc2c(c1)OCO2,"inconclusive: 8.91 µM [quencher, side channel, full curve]",
Cc1cc(Cl)c(S(=O)(=O)Nc2ccc(S(=O)(=O)N3CCOCC3)cc2)cc1OCC(N)=O,"inconclusive: 158 µM [inhibitor, partial curve]",
Cc1nc(SCc2cccc(Oc3ccccc3)c2)n[nH]1,,inactive: -13.6%
CC1(OC(=O)CCc2ccccc2)C(=O)C=C2C=C(c3ccc(C#N)cc3)N(Cc3ccccc3)C=C2C1=O (configuration not stated),"inconclusive: 20 µM [quencher, side channel, partial curve]",
O=C(N/N=C/c1ccc(O)cc1)/C(=C/c1ccc([N+](=O)[O-])cc1)NC(=O)c1ccccc1,"inconclusive: 6.31 µM [quencher, side channel, partial curve]",
